This is one part of the list. Repeats are few or missing, and single values can be far off.
What was measured:
Test in all cases: cell count relative to DMSO control; melanoma cells; higher = more viable cells
Conditions in all cases: library dose: low library concentration; 72 h
COLO792 = test system: COLO792
COLO800 = test system: COLO800
COLO829 = test system: COLO829
G361 = test system: G361
IPC-298 = test system: IPC-298
IST-MEL1 = test system: IST-MEL1
LB2518-MEL = test system: LB2518-MEL
LOXIMVI = test system: LOXIMVI
MEL-HO = test system: MEL-HO
MZ2-MEL = test system: MZ2-MEL
MeWo = test system: MeWo
RPMI7951 = test system: RPMI7951
RVH-421 = test system: RVH-421
SkMel28 = test system: SkMel28
SkMel2 = test system: SkMel2
SkMel30 = test system: SkMel30
SkMel5 = test system: SkMel5
UACC257 = test system: UACC257
UACC62 = test system: UACC62
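Note: cell number obtained by counting DAPI-stained nuclei in high-throughput microscope images with image analysis software, screen run in 1,536-well plates.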

Structure (SMILES) | cell count (COLO792) [%] | cell count (COLO800) [%] | cell count (COLO829) [%] | cell count (G361) [%] | cell count (IPC-298) [%] | cell count (IST-MEL1) [%] | cell count (LB2518-MEL) [%] | cell count (LOXIMVI) [%] | cell count (MEL-HO) [%] | cell count (MZ2-MEL) [%] | cell count (MeWo) [%] | cell count (RPMI7951) [%] | cell count (RVH-421) [%] | cell count (SkMel28) [%] | cell count (SkMel2) [%] | cell count (SkMel30) [%] | cell count (SkMel5) [%] | cell count (UACC257) [%] | cell count (UACC62) [%]
Cc1nc(Nc2ncc(C(=O)Nc3c(C)cccc3Cl)s2)cc(N2CCN(CCO)CC2)n1 [dasatanib] + O=C(CCCCCCC(=O)Nc1ccccc1)NO [vorinostat] (first compound 0.004 µM, partner dose 0.08 µM) | 67.6 | 67.2 | 62.4 | 83.3 | 104 | 85 | 89.4 | 53.5 | 93.2 | 85.5 | 84.8 | 68.3 | 92.6 | 58.3 | 98 | 94.6 | 88.7 | 51.9 | 89.3
NC(=O)Nc1cc(-c2cccc(F)c2)sc1C(=O)N[C@H]1CCCNC1 + CN(NC(=O)CC(=O)NN(C)C(=S)c1ccccc1)C(=S)c1ccccc1 [STA4783] (first compound 0.02 µM, partner dose 0.006 µM) | 55.7 | 39.2 | 79 | 80.6 | 98.4 | 75.2 | 68.2 | 80.7 | 99 | 110 | 101 | 93.6 | 82.7 | 103 | 105 | 110 | 130 | 116 | 93.8
NC(=O)Nc1cc(-c2cccc(F)c2)sc1C(=O)N[C@H]1CCCNC1 + CN(C)S(=O)(=O)c1ccc2c(c1)/C(=C/c1cc3c([nH]1)CCCC3)C(=O)N2 [SU6656] (first compound 0.02 µM, partner dose 0.4 µM) | 97.6 | 111 | 90 | 99.4 | 113 | 101 | 130 | 56.4 | 95 | 105 | 86.9 | 99.9 | 95 | 95.6 | 93.8 | 105 | 94.4 | 103 | 86.4
C=CCn1c(=O)c2cnc(Nc3ccc(N4CCN(C)CC4)cc3)nc2n1-c1cccc(C(C)(C)O)n1 + CC(C)(C)c1cnc(CSc2cnc(NC(=O)C3CCNCC3)s2)o1 [SNS-032] (first compound 0.02 µM, partner dose 0.01 µM) | 93 | 94.6 | 73.3 | 111 | 102 | 102 | 81.8 | 111 | 98.1 | 103 | 101 | 89.4 | 84.9 | 68.8 | 78.2 | 86.7 | 73.6 | 79.2 | 71.6
C=CCn1c(=O)c2cnc(Nc3ccc(N4CCN(C)CC4)cc3)nc2n1-c1cccc(C(C)(C)O)n1 + Cn1cncc1[C@@](N)(c1ccc(Cl)cc1)c1ccc2c(c1)c(-c1cccc(Cl)c1)cc(=O)n2C [tipifarnib] (first compound 0.02 µM, partner dose 0.01 µM) | 88.9 | 70.8 | 89 | 88.1 | 99.7 | 96 | 72 | 78.7 | 95.4 | 95.6 | 83.9 | 82.7 | 73.8 | 72.4 | 74.2 | 92.8 | 88.8 | 69.4 | 62.1
Cc1nc(Nc2ncc(C(=O)Nc3c(C)cccc3Cl)s2)cc(N2CCN(CCO)CC2)n1 [dasatanib] + Cc1ccc(NC(=O)c2cccc(N(C)C)c2)cc1NC(=O)c1ccc(O)cc1 [ZM336372] (first compound 0.004 µM, partner dose 2 µM) | 69.5 | 99.2 | 94 | 99.4 | 80.9 | 88.8 | 91.4 | 34.8 | 82 | 61.4 | 93.6 | 70.5 | 87.4 | 77.7 | 112 | 95.4 | 97.6 | 91.9 | 101
C[C@]1(c2nc3c(C(N)=O)cccc3[nH]2)CCCN1 [Veliparib] + CO[C@@H]1[C@H](N(C)C(=O)c2ccccc2)C[C@H]2O[C@]1(C)n1c3ccccc3c3c4c(c5c6ccccc6n2c5c31)C(=O)NC4 [Midostaurin] (first compound 1.4 µM, partner dose 0.08 µM) | 108 | 54.1 | 104 | 74 | 101 | 76.8 | 89.7 | 89.1 | 103 | 95.3 | 79.9 | 92.9 | 83.9 | 89 | 81.1 | 108 | 104 | 73.4 | 77.8
NCC(=O)Nc1ccc(-n2nc(C(F)(F)F)cc2-c2ccc3c(ccc4ccccc43)c2)cc1 + COc1cc2c(Oc3ccc4[nH]c(C)cc4c3F)ncnc2cc1OCCCN1CCCC1 [cediranib] (first compound 1 µM, partner dose 0.4 µM) | 89.5 | 89.5 | 78.6 | 81.9 | 78.3 | 99.2 | 102 | 74.1 | 92 | 90.1 | 65.7 | 108 | 113 | 79.8 | 67.5 | 42.8 | 89.7 | 88 | 86.7
C[C@]1(c2nc3c(C(N)=O)cccc3[nH]2)CCCN1 [Veliparib] + O=C(Nc1cccc(Cl)c1)Nc1ncc(CCNc2ncnc3ccsc23)s1 [SNS314] (first compound 1.4 µM, partner dose 0.0008 µM) | 89.2 | 103 | 99.2 | 94.4 | 102 | 87.5 | 96.8 | 67.8 | 92.5 | 96.2 | 96.5 | 105 | 97.8 | 88.3 | 93.4 | 106 | 98.2 | 80 | 93
OCCn1cc(-c2cnc3nnn(Cc4ccc5ncccc5c4)c3n2)cn1 + CN(NC(=O)CC(=O)NN(C)C(=S)c1ccccc1)C(=S)c1ccccc1 [STA4783] (first compound 1 µM, partner dose 0.006 µM) | 80 | 61.6 | 83.4 | 85.8 | 102 | 83.6 | 100 | 81.3 | 104 | 108 | 105 | 93.8 | 82.1 | 92.2 | 107 | 101 | 101 | 100 | 82.9
Cc1nc(Nc2ncc(C(=O)Nc3c(C)cccc3Cl)s2)cc(N2CCN(CCO)CC2)n1 [dasatanib] + COc1cc2c(Oc3ccc4[nH]c(C)cc4c3F)ncnc2cc1OCCCN1CCCC1 [cediranib] (first compound 0.004 µM, partner dose 0.4 µM) | 61.2 | 149 | 83.7 | 88.8 | 111 | 84.5 | 98.7 | 76.2 | 95 | 91.8 | 86.6 | 58.5 | 96.5 | 65.8 | 100 | 107 | 72.4 | 41.7 | 83.6
CO[C@@H]1[C@H](N(C)C(=O)c2ccccc2)C[C@H]2O[C@]1(C)n1c3ccccc3c3c4c(c5c6ccccc6n2c5c31)C(=O)NC4 [Midostaurin] + OCCn1cc(-c2cnc3nnn(Cc4ccc5ncccc5c4)c3n2)cn1 [PF04217903] (first compound 0.08 µM, partner dose 1 µM) | 102 | 166 | 98.2 | 90.2 | 102 | 105 | 84.1 | 85.2 | 104 | 109 | 95.8 | 95.4 | 4.2 | 102 | 96.2 | 110 | 106 | 107 | 91.4
CO[C@@H]1[C@H](N(C)C(=O)c2ccccc2)C[C@H]2O[C@]1(C)n1c3ccccc3c3c4c(c5c6ccccc6n2c5c31)C(=O)NC4 [Midostaurin] + O=C(Nc1cccc(Cl)c1)Nc1ncc(CCNc2ncnc3ccsc23)s1 [SNS314] (first compound 0.08 µM, partner dose 0.0008 µM) | 88.4 | 63.1 | 86.2 | 79.7 | 104 | 91.4 | 79.3 | 68 | 92.9 | 87.4 | 81.9 | 65.1 | 86 | 97.7 | 79.3 | 106 | 96.4 | 74.4 | 70.7
C=CCn1c(=O)c2cnc(Nc3ccc(N4CCN(C)CC4)cc3)nc2n1-c1cccc(C(C)(C)O)n1 + O=C(Nc1cccc(Cl)c1)Nc1ncc(CCNc2ncnc3ccsc23)s1 [SNS314] (first compound 0.02 µM, partner dose 0.0008 µM) | 103 | 89.8 | 105 | 89.4 | 96.3 | 98.7 | 79.3 | 95.6 | 105 | 98.6 | 96.4 | 91.2 | 86.5 | 98 | 98.6 | 114 | 79.4 | 81.8 | 77.1
C=CCn1c(=O)c2cnc(Nc3ccc(N4CCN(C)CC4)cc3)nc2n1-c1cccc(C(C)(C)O)n1 + NC(=O)Nc1cc(-c2cccc(F)c2)sc1C(=O)N[C@H]1CCCNC1 [AZD7762] (first compound 0.02 µM, partner dose 0.02 µM) | 86 | 91.6 | 103 | 107 | 105 | 102 | 88 | 69.2 | 103 | 113 | 76.5 | 54.4 | 101 | 82.8 | 93.5 | 62.3 | 95.6 | 110 | 69
Cc1nc(Nc2ncc(C(=O)Nc3c(C)cccc3Cl)s2)cc(N2CCN(CCO)CC2)n1 [dasatanib] + Cc1cc(N2CCOCC2)cc2[nH]c(-c3c(NC[C@@H](O)c4cccc(Cl)c4)cc[nH]c3=O)nc12 [BMS536924] (first compound 0.004 µM, partner dose 0.2 µM) | 50.5 | 32.1 | 91.1 | 87.8 | 85.9 | 87.1 | 82.9 | 86.8 | 86 | 78 | 81.7 | 73.6 | 101 | 71.6 | 94.3 | 84.1 | 84.6 | 64.5 | 81.2

From the supplement of paper PMC4604168 (melanoma cell lines)
